Laboratory results taken from PubChem BioAssay AID588579 (National Center for Advancing Translational Sciences (NCATS), 2011).
Hit rate of the full screen: of about 400,000 compounds, about 2,200 (0.55%) were called active. Inconclusive results, whose numbers are uncertain, are shown with a selection of clear calls. Calls come from the whole dose curve; as a rule, active = well fitted inhibition curve with a large enough effect; inconclusive = small, poorly fitted or top-dose-only effect, or another doubt; inactive = no such curve, though single readings can be large or run the other way. Where the call is inconclusive, the potency comes from a doubtful curve fit.

These compounds were tested against DNA polymerase kappa (Homo sapiens) (UniProt Q9UBT6) (assay: qHTS for Inhibitors of Polymerase Kappa). Details: purified Pol kappa, fluorescent DNA synthesis assay, 10 min; series mostly up to 107 µM.
How it was run: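 10 nM Pol kappa was preincubated with compounds for 15 min at room temperature. Reaction started with 50 nM (final) substrate. Fluorescence read kinetically at 0 and 10 min.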
Potency is the fitted concentration of half-maximal effect; tags give direction and shape of the fitted curve.

UniProt Q9UBT6, sequence (Q9UBT6 whole entry, looked up): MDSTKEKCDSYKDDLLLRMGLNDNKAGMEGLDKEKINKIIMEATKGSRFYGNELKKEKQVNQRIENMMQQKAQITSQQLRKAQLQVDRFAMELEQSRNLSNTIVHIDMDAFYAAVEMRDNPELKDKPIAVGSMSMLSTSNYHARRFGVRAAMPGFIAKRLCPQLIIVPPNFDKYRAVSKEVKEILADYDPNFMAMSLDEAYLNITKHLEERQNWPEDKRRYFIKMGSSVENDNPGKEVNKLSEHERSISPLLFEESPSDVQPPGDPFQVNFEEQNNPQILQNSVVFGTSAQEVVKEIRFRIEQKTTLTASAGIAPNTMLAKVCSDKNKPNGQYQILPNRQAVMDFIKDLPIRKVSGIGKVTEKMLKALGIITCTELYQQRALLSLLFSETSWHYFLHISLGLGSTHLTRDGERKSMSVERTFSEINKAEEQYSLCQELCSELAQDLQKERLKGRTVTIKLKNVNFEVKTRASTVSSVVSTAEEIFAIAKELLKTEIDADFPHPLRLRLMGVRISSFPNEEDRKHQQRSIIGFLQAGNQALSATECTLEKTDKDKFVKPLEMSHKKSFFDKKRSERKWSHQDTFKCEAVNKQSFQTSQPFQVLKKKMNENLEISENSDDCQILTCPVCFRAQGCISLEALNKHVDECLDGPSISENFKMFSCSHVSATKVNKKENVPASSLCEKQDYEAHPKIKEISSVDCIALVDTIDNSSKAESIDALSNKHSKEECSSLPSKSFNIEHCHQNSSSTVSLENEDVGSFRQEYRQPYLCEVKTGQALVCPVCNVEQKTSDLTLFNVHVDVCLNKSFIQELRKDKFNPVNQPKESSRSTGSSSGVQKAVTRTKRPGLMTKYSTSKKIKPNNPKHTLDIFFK

Row | Compound | Potency
1 | [O-][n+]1c2ccccc2[n+]([O-])c2cc(O)ccc21 | inconclusive: 89.1 µM [inhibitor, single point]
2 | C/C(N)=C(/C#N)C(=O)CSc1nnc(Nc2cccc(C)c2)s1 | inconclusive: 89.1 µM [inhibitor, single point]
3 | O=C(O)CCCCCn1c(SCC(=O)N2CCCC2)nc2ccsc2c1=O | inactive
4 | COc1ccc2c(CC(=O)OCC(=O)N(C)c3c(N)n(Cc4ccccc4)c(=O)[nH]c3=O)coc2c1 | inactive
5 | COc1ccc(-c2cc(=O)c3c(O)cc(O[C@H]4OC(COC5OC(C)C(O)C(O)[C@H]5O)C(O)C(O)C4O)cc3o2)cc1O (some centres not stated) | active: 20 µM
6 | COC(=O)C1(NC(=O)CNC(=O)OCc2ccccc2)CCCC1 | inactive
7 | Cc1ccc2c(CC(=O)OCc3cc(=O)n4c(n3)sc3ccccc34)coc2c1 | inconclusive: 56.2 µM [inhibitor, partial curve, poor fit]
8 | O=C(COC(=O)Cc1ccc(S(=O)(=O)N2CCOCC2)s1)NCCc1ccccc1 | inconclusive: 89.1 µM [inhibitor, single point]
9 | Cc1cc2c(=O)n(Cc3ccco3)c(SCC(=O)NCc3ccco3)nc2s1 | inconclusive: 89.1 µM [inhibitor, single point]
10 | Cc1cc(C)n(-c2ccc(C(=O)Nc3ccc(S(=O)(=O)N(C)C)cc3)cc2)n1 | inconclusive: 89.1 µM [inhibitor, single point]
11 | C#CCCCCCCCCCCCC(O)CC(O)COC(C)=O (configuration not stated) | inconclusive: 39.8 µM [inhibitor, partial curve, poor fit]
12 | CCOCC(=O)Nc1nc(C)cc(C)n1 | inconclusive: 79.4 µM [inhibitor, partial curve, poor fit]
13 | COc1ccc(Cl)cc1NC(=O)CSc1sc2c(O)cc(=O)[nH]c2c1C#N | inconclusive: 89.1 µM [inhibitor, single point]
14 | COc1ccc(C(=O)c2ccccc2)c(O)c1 | inconclusive: 15.8 µM [inhibitor, partial curve, poor fit]
15 | O=C(N/N=C/c1ccc(O)c(O)c1)c1ccc(-n2cnnn2)cc1 | active: 79.4 µM
16 | COc1cccc(CNC(=O)CN2c3cccc4cccc(c34)S2(=O)=O)c1 | inconclusive: 89.1 µM [inhibitor, single point]
17 | Cc1ccc(-c2cc(C(=O)NCc3ccco3)c3ccccc3n2)s1 | inconclusive: 89.1 µM [inhibitor, partial curve, poor fit]
18 | Cc1ccc(NC(=O)c2c3c(nc4ccccc24)CCC3)cc1S(=O)(=O)N(C)C | active: 79.4 µM
19 | COc1ccc(-n2c(Cc3cccn3C)nnc2SCC(=O)NCc2ccco2)cc1 | inconclusive: 89.1 µM [inhibitor, partial curve, poor fit]
20 | CC(C)C(=O)OCC(=O)[C@@]12OC(C3CCCCC3)O[C@@H]1CC1C3CCC4=CC(=O)C=C[C@]4(C)C3[C@@H](O)C[C@@]12C (some centres not stated) | inconclusive: 12.6 µM [inhibitor, partial curve, poor fit]
21 | COc1ccc(CCNC(=O)CCCCn2c(=O)c3ccccc3n(Cc3cc(C)ccc3C)c2=O)cc1OC | inactive

Row | Compound | Potency
22 | Nc1ccc(O)cc1 | active: 89.1 µM
23 | O=C(Nc1ccc(S(=O)(=O)NCc2ccco2)cc1)c1ccc(F)cc1 | inconclusive: 100 µM [inhibitor, single point]
24 | CC(=O)NC1CC2CCCC(C1)N2C(=O)Nc1cccc(C)c1 (configuration not stated) | inconclusive: 89.1 µM [inhibitor, single point]
25 | O=C(CN1CCN(C(C(=O)Nc2ccc(F)cc2)c2ccccc2)CC1)NC1CC1 (configuration not stated) | inactive
26 | Cc1ccc(-n2c(O)c(C=Nc3ccccc3-c3n[nH]c(=S)[nH]c3=O)c3ccccc3c2=O)cc1C | inconclusive: 89.1 µM [inhibitor, single point]
27 | Cc1ccc2c(=O)c(C(=O)c3ccc(F)cc3)cn(CC(=O)NCc3ccco3)c2n1 | inconclusive: 89.1 µM [inhibitor, single point]
28 | CCOC(=O)C(=O)C1=CN(Cc2ccccc2)C=C(C#N)C1 | inconclusive: 89.1 µM [inhibitor, partial curve, poor fit]
29 | CCN(c1ccccc1)S(=O)(=O)c1cc(C(=O)OCC(=O)c2c(N)n(C)c(=O)n(C)c2=O)ccc1C | inconclusive: 20 µM [inhibitor, full curve, poor fit]
30 | Cc1cccc(N2CC(C(=O)Nc3nnc(SCCC4OCCO4)s3)CC2=O)c1 (configuration not stated) | inconclusive: 79.4 µM [inhibitor, single point]
31 | O=C(/C=C\c1ccco1)NC(=S)Nc1ccccc1O | inconclusive: 50.1 µM [inhibitor, partial curve, poor fit]
32 | COc1cc(/C=C/c2ccc3cccc([N+](=O)[O-])c3n2)ccc1OCC(=O)O | inconclusive: 89.1 µM [inhibitor, partial curve, poor fit]
33 | Cc1ccc(N=Cc2cccc(O)c2O)c(C)c1 | active: 20 µM
34 | O=C(COC(=O)c1ccc(Br)o1)Nc1ncc([N+](=O)[O-])s1 | active: 79.4 µM
35 | CCOC(=O)C1CCN(C(=O)Nc2ccc3nc(-c4ccco4)c(-c4ccco4)nc3c2)CC1 | active: 15.8 µM
36 | CCCS(=O)(=O)c1ncc(Cl)c(C(=O)N2CCN(c3ccc(OC)cc3)CC2)n1 | inactive
37 | CC(C)c1nc2cc(Cl)ccc2n(Cc2ccccc2)c1=O | inconclusive: 89.1 µM [inhibitor, single point]
38 | O=S(=O)(Cc1noc(-c2ccc(Cl)cc2)n1)Cc1ccco1 | inconclusive: 89.1 µM [inhibitor, single point]
39 | COc1cc(/C=C2\SC(=O)N(CC(=O)Nc3ccccc3F)C2=O)cc(Cl)c1O | inconclusive: 89.1 µM [inhibitor, single point]
40 | CC(C)CCCC(C)CCCC(C)CCCC(C)C(=O)O (configuration not stated) | active: 29.9 µM
41 | O=C(Nc1ccc(Br)cn1)c1coc(=O)c(Br)c1 | inconclusive: 89.1 µM [inhibitor, single point]
42 | COc1cccc(N2CC(C(=O)Nc3nnc(SCC(=O)NCc4ccco4)s3)CC2=O)c1 (configuration not stated) | inconclusive: 89.1 µM [inhibitor, single point]
